Results as given in patent US5760092A, “Allocolchinones and uses thereof” (Brandeis University, priority 1996, dated 1998).
Several values for one entry are separate records, joined by “and”; a condition that tells them apart may be missing. Equal values may be shown once. Read-outs that look alike come from different tables or passages of the source.

Tests used:
[1] = test system: NCI-H522 non-small cell lung cancer cells
[2] = test system: HCT-116 colon cancer cells
M14 melanoma cells = conditions: log10 conc -5.0
[3] = test system: OVCAR-4 ovarian cancer cells
786-0 renal cancer cells [4] = test system: 786-0 renal cancer cells
ACHN renal cancer cells = conditions: log10 conc -8.0; 0.01 µM
SN12C renal cancer cells [5] = test system: SN12C renal cancer cells
UO-31 renal cancer cells [6] = test system: UO-31 renal cancer cells
[7] = test system: DU-145 prostate cancer cells
RPMI-8226 leukemia cells = experiment: cells; conditions: Homo sapiens
[8] = test system: NCI-H23 non-small cell lung cancer cells; experiment: cells; conditions: Homo sapiens, NCI-H23, read-out: Percent Growth, log10 conc -6.0
[9] = test system: HCC-2998 colon cancer cells; experiment: cells; conditions: Homo sapiens, HCC 2998, read-out: Percent Growth, log10 conc -8.0
LOX IMVI melanoma cells = experiment: cells; conditions: Homo sapiens, read-out: Percent Growth, log10 conc -8.0
[10] = test system: OVCAR-4 ovarian cancer cells; experiment: cells; conditions: Homo sapiens
[11] = test system: OVCAR-5 ovarian cancer cells; experiment: cells; conditions: Homo sapiens
786-0 renal cancer cells [12] = experiment: cells; conditions: Homo sapiens
SN12C renal cancer cells [13] = experiment: cells; conditions: Homo sapiens
TK-10 renal cancer cells = experiment: cells; conditions: Homo sapiens
UO-31 renal cancer cells [14] = experiment: cells; conditions: Homo sapiens
[15] = test system: DU-145 prostate cancer cells; experiment: cells; conditions: Homo sapiens, DU-145, read-out: Percent Growth, log10 conc -8.0
[16] = test system: BT-549 breast cancer cells; experiment: cells; conditions: Homo sapiens

CCCC(=O)NC1CCc2cc(OC)c(OC)c(OC)c2-c2ccc(C(C)=O)cc21 (centres unmarked)
Percent Growth (SR leukemia cells; log10 conc -5.0, 10 µM): -9% and 0%
Percent Growth (SR leukemia cells; log10 conc -6.0, 1 µM): -11%
Percent Growth (SR leukemia cells; log10 conc -7.0, 0.1 µM): 3%
Percent Growth (SR leukemia cells; log10 conc -8.0, 0.01 µM): -1% and 0%
Percent Growth ([1]; log10 conc -6.0, 1 µM): -1%
Percent Growth ([1]; log10 conc -7.0, 0.1 µM): -51% and -47%
Percent Growth ([1]; log10 conc -8.0): -46%
Percent Growth ([1]; log10 conc -8.0, 0.01 µM): -45%
Percent Growth ([2]; log10 conc -5.0, 10 µM): 3%
Percent Growth ([2]; log10 conc -6.0, 1 µM): 5%
Percent Growth ([2]; log10 conc -8.0, 0.01 µM): 8%
Percent Growth (MALME-3M melanoma cells; log10 conc -5.0, 10 µM): 25%
Percent Growth (MALME-3M melanoma cells; log10 conc -6.0, 1 µM): 17%
Percent Growth (MALME-3M melanoma cells; log10 conc -7.0, 0.1 µM): 21%
Percent Growth (M14 melanoma cells): 4%
Percent Growth (SK-MEL-2 melanoma cells; log10 conc -4.0, 100 µM): 17%
Percent Growth (SK-MEL-2 melanoma cells; log10 conc -6.0, 1 µM): 4% and -3%
Percent Growth (SK-MEL-2 melanoma cells; log10 conc -7.0, 0.1 µM): -9% and -4%
Percent Growth (SK-MEL-28 melanoma cells; log10 conc -4.0, 100 µM): 29% and 58%
Percent Growth (SK-MEL-28 melanoma cells; log10 conc -5.0, 10 µM): 27% and 52%
Percent Growth (SK-MEL-28 melanoma cells; log10 conc -6.0, 1 µM): 27% and 54%
Percent Growth (SK-MEL-5 melanoma cells; log10 conc -4.0, 100 µM): -47%
Percent Growth (SK-MEL-5 melanoma cells; log10 conc -5.0, 10 µM): 2%
Percent Growth (SK-MEL-5 melanoma cells; log10 conc -6.0, 1 µM): 4%
Percent Growth (SK-MEL-5 melanoma cells; log10 conc -7.0, 0.1 µM): -5% and 3%
Percent Growth (SK-MEL-5 melanoma cells; log10 conc -8.0): 2%
Percent Growth (UACC-62 melanoma cells; log10 conc -4.0, 100 µM): 20%
Percent Growth (UACC-62 melanoma cells; log10 conc -6.0, 1 µM): 30%
Percent Growth (UACC-62 melanoma cells; log10 conc -7.0, 0.1 µM): 30%
Percent Growth (UACC-62 melanoma cells; log10 conc -8.0, 0.01 µM): 28%
Percent Growth ([3]; log10 conc -4.0, 100 µM): 13%
Percent Growth ([3]; log10 conc -5.0, 10 µM): 42%
Percent Growth ([3]; log10 conc -7.0, 0.1 µM): 51%
Percent Growth ([3]; log10 conc -8.0, 0.01 µM): 58%
Percent Growth (786-0 renal cancer cells [4]; log10 conc -4.0, 100 µM): 4% and 12%
Percent Growth (786-0 renal cancer cells [4]; log10 conc -5.0, 10 µM): 24%
Percent Growth (786-0 renal cancer cells [4]; log10 conc -6.0, 1 µM): 25%
Percent Growth (786-0 renal cancer cells [4]; log10 conc -7.0, 0.1 µM): 31%
Percent Growth (786-0 renal cancer cells [4]; log10 conc -8.0, 0.01 µM): 35%
Percent Growth (ACHN renal cancer cells): 28%
Percent Growth (SN12C renal cancer cells [5]; log10 conc -5.0, 10 µM): 14%
Percent Growth (SN12C renal cancer cells [5]; log10 conc -7.0, 0.1 µM): 14%
Percent Growth (SN12C renal cancer cells [5]; log10 conc -8.0, 0.01 µM): 15%
Percent Growth (UO-31 renal cancer cells [6]; log10 conc -4.0, 100 µM): -4% and 1%
Percent Growth (UO-31 renal cancer cells [6]; log10 conc -6.0, 1 µM): 32%
Percent Growth (UO-31 renal cancer cells [6]; log10 conc -7.0, 0.1 µM): 33%
Percent Growth (UO-31 renal cancer cells [6]; log10 conc -8.0, 0.01 µM): 42%
Percent Growth ([7]; log10 conc -4.0, 100 µM): 3%
Percent Growth ([7]; log10 conc -5.0): 3%
Percent Growth ([7]; log10 conc -6.0, 1 µM): -7% and 1%
Percent Growth ([7]; log10 conc -8.0, 0.01 µM): 3%
activity at 10 µM (RPMI-8226 leukemia cells; RPMI-8226, read-out: Percent Growth, log10 conc -5.0): 7%
activity at 1 µM (RPMI-8226 leukemia cells; RPMI-8226, read-out: Percent Growth, log10 conc -6.0): 8%
activity at 0.1 µM (RPMI-8226 leukemia cells; RPMI-8226, read-out: Percent Growth, log10 conc -7.0): 11%
activity at 0.01 µM (RPMI-8226 leukemia cells; RPMI-8226, read-out: Percent Growth, log10 conc -8.0): 14%
activity at 1 µM [8]: 8%
activity at 0.01 µM [9]: 36%
activity at 0.01 µM (LOX IMVI melanoma cells): 31%
activity at 100 µM ([10]; OVCAR-4, read-out: Percent Growth, log10 conc -4.0): 19%
activity at 10 µM ([10]; OVCAR-4, read-out: Percent Growth, log10 conc -5.0): 48%
activity at 1 µM ([10]; OVCAR-4, read-out: Percent Growth, log10 conc -6.0): 49%
activity at 0.1 µM ([10]; OVCAR-4, read-out: Percent Growth, log10 conc -7.0): 61%
activity at 0.01 µM ([10]; OVCAR-4, read-out: Percent Growth, log10 conc -8.0): 64%
activity at 100 µM ([11]; OVCAR-5, read-out: Percent Growth, log10 conc -4.0): 12%
activity at 10 µM ([11]; OVCAR-5, read-out: Percent Growth, log10 conc -5.0): 20%
activity at 1 µM ([11]; OVCAR-5, read-out: Percent Growth, log10 conc -6.0): 24%
activity at 0.1 µM ([11]; OVCAR-5, read-out: Percent Growth, log10 conc -7.0): 24%
activity at 0.01 µM ([11]; OVCAR-5, read-out: Percent Growth, log10 conc -8.0): 17%
activity at 10 µM (786-0 renal cancer cells [12]; 786-0, read-out: Percent Growth, log10 conc -5.0): 14%
activity at 1 µM (786-0 renal cancer cells [12]; 786-0, read-out: Percent Growth, log10 conc -6.0): 15%
activity at 0.1 µM (786-0 renal cancer cells [12]; 786-0, read-out: Percent Growth, log10 conc -7.0): 21%
activity at 0.01 µM (786-0 renal cancer cells [12]; 786-0, read-out: Percent Growth, log10 conc -8.0): 22%
activity at 100 µM (SN12C renal cancer cells [13]; read-out: Percent Growth, log10 conc -4.0): 12%
activity at 10 µM (SN12C renal cancer cells [13]; read-out: Percent Growth, log10 conc -5.0): 13%
activity at 1 µM (SN12C renal cancer cells [13]; read-out: Percent Growth, log10 conc -6.0): 6%
activity at 0.1 µM (SN12C renal cancer cells [13]; read-out: Percent Growth, log10 conc -7.0): 7%
activity at 0.01 µM (SN12C renal cancer cells [13]; read-out: Percent Growth, log10 conc -8.0): 23%
activity at 100 µM (TK-10 renal cancer cells; TK-10, read-out: Percent Growth, log10 conc -4.0): 25%
activity at 10 µM (TK-10 renal cancer cells; TK-10, read-out: Percent Growth, log10 conc -5.0): 69%
activity at 1 µM (TK-10 renal cancer cells; TK-10, read-out: Percent Growth, log10 conc -6.0): 83%
activity at 0.1 µM (TK-10 renal cancer cells; TK-10, read-out: Percent Growth, log10 conc -7.0): 68%
activity at 10 µM (UO-31 renal cancer cells [14]; UO-31, read-out: Percent Growth, log10 conc -5.0): 22%
activity at 1 µM (UO-31 renal cancer cells [14]; UO-31, read-out: Percent Growth, log10 conc -6.0): 24%
activity at 0.1 µM (UO-31 renal cancer cells [14]; UO-31, read-out: Percent Growth, log10 conc -7.0): 38%
activity at 0.01 µM (UO-31 renal cancer cells [14]; UO-31, read-out: Percent Growth, log10 conc -8.0): 53%
activity at 0.01 µM [15]: 5%
activity at 10 µM ([16]; BT-549, read-out: Percent Growth, log10 conc -5.0): 13%
activity at 1 µM ([16]; BT-549, read-out: Percent Growth, log10 conc -6.0): 20%
activity at 0.01 µM ([16]; BT-549, read-out: Percent Growth, log10 conc -8.0): 34%
